Source: PubChem BioAssay AID2202238 (Ras Initiative Chemistry Research Team, Frederick National …, 2025)
The list shows a part of the results. The main result of the screen is listed elsewhere. These columns were measured beside it and carry no call.

Molecular target: GTPase KRas (Homo sapiens) (UniProt P01116)
Experiment: Cysteine mutants labelled by reactive fragments (mass read-out) (AID 2202238)
Design: protein at 5 µM with 500 µM competing thiol for 1.5 h
Conditions: KRAS G12D cysteine mutants, disulfide tethering, MALDI-TOF labeling, stronger effect = higher value, fragment at 500 µM
[1] = measured here: G60C mutant labeling
[2] = measured here: G75C mutant labeling
[3] = measured here: H94C mutant labeling
[4] = measured here: I36C mutant labeling
[5] = measured here: L120C mutant labeling
[6] = measured here: M67C mutant labeling
[7] = measured here: M72C mutant labeling
[8] = measured here: N26C mutant labeling
[9] = measured here: N86C mutant labeling
[10] = measured here: P121C mutant labeling
[11] = measured here: S122C mutant labeling
[12] = measured here: S136C mutant labeling

Sequence of UniProt P01116 (P01116 whole entry, looked up, the tested form may be a part): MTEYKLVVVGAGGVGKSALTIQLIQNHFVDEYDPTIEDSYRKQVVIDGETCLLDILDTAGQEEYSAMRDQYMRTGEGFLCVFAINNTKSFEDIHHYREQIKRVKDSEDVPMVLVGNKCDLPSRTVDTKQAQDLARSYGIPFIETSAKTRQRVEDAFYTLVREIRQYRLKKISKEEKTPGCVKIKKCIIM

| SMILES | percent labeling [1] [%] | percent labeling [2] [%] | percent labeling [3] [%] | percent labeling [4] [%] | percent labeling [5] [%] | percent labeling [6] [%] | percent labeling [7] [%] | percent labeling [8] [%] | percent labeling [9] [%] | percent labeling [10] [%] | percent labeling [11] [%] | percent labeling [12] [%] |
| --- | --- | --- | --- | --- | --- | --- | --- | --- | --- | --- | --- | --- |
| CC1CCN(c2ccc(C(=O)NCCS)cc2)C1 (centres undefined) | 0 | 4.3 | 5.6 | 0 | 0 | 5.2 | 41.3 | 22.7 | 3.7 | 0 | 4.6 | 0 |
| O=C(NCCS)[C@@H]1CCCN1C(=O)Nc1ccc2c(c1)OCCO2 | 24.3 | 10.8 | 27.2 | 15.4 | 37 | 18.5 | 16.6 | 31.1 | 17.6 | 23.2 | 19.7 | 29.3 |
| CCNC(=O)COc1cccc(CNC(=O)CCS)c1 |  | 9.2 | 32.3 | 36.8 | 28.6 | 31.9 | 22.1 |  | 34.2 | 30 | 34.2 | 45.6 |
| O=C(NCCS)C1CCN(Cc2coc(-c3ccccc3)n2)CC1 | 44 | 21.4 | 40.2 | 40.2 | 27.2 | 62.8 | 19.5 | 44.7 | 24.6 | 26.2 | 23.5 | 42.5 |
| COc1ccc2cccc(CC(=O)NCCS)c2c1 | 46 | 17.3 | 21.1 | 22.4 | 39.6 | 19.3 | 42.1 | 26 | 14.1 | 19.9 | 16.4 | 31.7 |
| O=C(CCS)N1Cc2cccn2C2(CCOCC2)C1 |  | 3.7 | 10.7 | 17.2 | 11.4 | 2.2 | 4.9 |  | 13.5 | 15.4 | 14.7 | 12.8 |
| O=C(NCCS)C1CCN(C(=O)c2cccc3ccccc23)CC1 | 36.8 | 16.3 | 30.5 | 21.6 | 20.4 | 81.4 | 30.6 | 41.5 | 15.4 | 21.2 | 17.8 | 45.8 |
| CN1C(=O)CO[C@@H](C(=O)NCCS)[C@H]1c1cnn(C)c1 | 17.3 | 7.4 | 27.7 | 26.1 | 21.7 | 27.8 | 11.1 | 27.5 | 19.8 | 34.1 | 28.9 | 35.3 |
| O=C(CCS)Nc1cc2ccc(Br)cn2n1 |  | 5.2 | 14 | 34.2 | 16 | 11.8 | 39.3 |  | 18.8 | 13.4 | 10.5 | 24.6 |
| O=C(CCS)Nc1ccc(Cl)cc1-c1ccccc1 |  | 11.8 | 23.2 | 15.8 | 23.4 | 19.1 | 33.4 |  | 18 | 19.2 | 12.6 | 22.9 |
| Cn1nc(-c2ccco2)cc1NC(=O)CCS |  | 14 | 25.6 | 33 | 32.7 | 23.3 | 44.7 |  | 32.5 | 36.9 | 29.7 | 48.4 |
| O=C(CCS)N1CC(c2n[nH]c3c2COCC3)C1 |  | 11.2 | 20.7 | 25.7 | 23.4 | 44.2 | 16.1 |  | 12.3 | 26.8 | 29.9 | 47.1 |
| Cc1nc(-c2cccc(C(=O)NCCS)c2)no1 | 49.8 | 19.8 | 33.1 | 24.1 | 36.4 | 23.7 | 49.5 | 43.6 | 21.8 | 25.6 | 12.6 | 49.3 |
| Cc1cc(C(=O)NCCS)c2c(C)nn(-c3ccccc3)c2n1 | 17.2 | 7.2 | 10.5 | 8.2 | 7.9 | 13.1 | 20.3 | 20.6 | 6.4 | 8.1 | 0 | 12.2 |
| COc1cc(OC)c2cc(C(=O)NCCS)[nH]c2c1 | 14.9 | 7 | 13.3 | 11.5 | 21.6 | 12.3 | 28.2 | 28.2 | 11.6 | 14.9 | 11.6 | 20.7 |
| CCOc1ccc(NC(=O)c2ccc(NC(=O)CCS)cc2)cc1 |  | 3.8 | 2.3 | 5.9 | 4.3 | 3.4 | 3.5 |  | 3.2 | 4.1 | 0 | 6.3 |
| O=C(NCCS)c1cccc(-n2nccc2C(F)(F)F)c1 | 27.9 | 16.9 | 19.3 | 13.3 | 19.7 | 17.2 | 34.6 | 28.8 | 17.2 | 16.6 | 12.3 | 24 |
| Cc1cc(Cl)cc2cc(C(=O)NCCS)[nH]c12 | 26.3 | 16.9 | 11.6 | 10.6 | 13.9 | 7.8 | 54.5 | 21.6 | 16.1 | 10.2 | 8.5 | 13 |
| COc1cccc(COCC(=O)NCCS)c1 | 40.2 | 19.5 | 30.5 | 28.3 | 45.4 | 31.8 | 44.4 | 47.2 | 24.5 | 30.3 | 34.8 | 58.2 |
| O=C(CCS)Nc1ccc2c(c1)C(F)(F)C(=O)N2 |  | 18.6 | 25.8 | 32.3 | 17.7 | 24.5 | 42.3 |  | 9 | 21.4 | 21.7 | 39.6 |
| O=C(CCS)N1CC(O)(c2cccnc2F)C1 |  | 20.9 | 19.6 | 20.3 | 21.8 | 35 | 20.5 |  | 13.3 | 30.2 | 32.1 | 43.3 |
| O=C(NCCS)c1cccc(Oc2ccncc2)c1Cl |  | 27.8 | 39.9 | 45.9 | 34.3 | 45.2 | 75.1 |  | 38.6 | 33.6 | 35 | 54.3 |
| Cc1n[nH]c(C)c1C1COCCN1C(=O)CCS (centres undefined) |  | 11.3 | 32.2 | 37.2 | 26.8 | 40.1 | 13.2 |  | 24.7 | 31.4 | 27.9 | 53.1 |
